Reference: the supplement of paper PMC6531468
The list shows a part of the results. Read counts after selection give these values, which scatter widely. Scores sum up all selected molecules that hold the word; the word was not tested alone.

What was measured:
Test in all cases: 6-mer SELEX enrichment z-score vs GST control; IMP3 is the RNA-binding protein IGF2BP3; higher = more enriched by binding
IMP3 KH1-4 = details: construct: KH1-4 (164-579); SELEX round: R4
Description: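 SELEX-seq with GST-tagged IMP3 KH1-4 (Pro164-Lys579) and an N40 RNA pool, round 4. 6-mer z-score of sequence-tag enrichment normalised to the corresponding GST SELEX round; RNA k-mers written as DNA (T for U).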

IMP3 RRM1-2 = details: construct: RRM1-2 (1-163); SELEX round: R2
IMP3 RRM1-2, sequence (chain, as listed by the source): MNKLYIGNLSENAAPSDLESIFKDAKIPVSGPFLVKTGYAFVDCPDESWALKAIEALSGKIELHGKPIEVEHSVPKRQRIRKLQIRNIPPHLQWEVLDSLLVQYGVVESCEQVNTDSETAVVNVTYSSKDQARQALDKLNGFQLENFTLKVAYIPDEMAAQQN
Description: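 SELEX-seq with GST-tagged IMP3 RRM1-2 (Met1-Asn163) and an N40 RNA pool, round 2. 6-mer enrichment z-score normalised to GST SELEX. RNA written as DNA (T = U).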

IMP3 full-length = IMP3 full-length (UniProt O00425); details: construct: FL IMP3 (1-579); SELEX round: R4
UniProt O00425, sequence (O00425 whole entry): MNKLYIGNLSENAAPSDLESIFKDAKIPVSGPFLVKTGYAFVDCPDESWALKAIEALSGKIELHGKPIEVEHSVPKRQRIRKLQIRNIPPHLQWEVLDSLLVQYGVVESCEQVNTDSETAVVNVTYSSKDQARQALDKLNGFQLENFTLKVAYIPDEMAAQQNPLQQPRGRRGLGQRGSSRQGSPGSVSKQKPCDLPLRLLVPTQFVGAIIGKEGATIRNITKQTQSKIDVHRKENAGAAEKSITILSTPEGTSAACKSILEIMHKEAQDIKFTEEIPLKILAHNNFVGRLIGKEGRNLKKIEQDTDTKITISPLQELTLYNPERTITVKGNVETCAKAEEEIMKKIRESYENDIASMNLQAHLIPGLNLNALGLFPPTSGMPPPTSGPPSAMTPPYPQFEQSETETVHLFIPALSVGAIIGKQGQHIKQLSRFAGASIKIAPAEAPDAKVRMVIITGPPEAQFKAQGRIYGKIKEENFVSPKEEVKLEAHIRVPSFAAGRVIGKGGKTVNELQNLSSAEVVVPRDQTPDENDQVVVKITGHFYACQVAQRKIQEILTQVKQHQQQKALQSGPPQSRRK
Description: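 SELEX-seq with GST-tagged full-length IMP3 and an N40 RNA pool, round 4. Each 6-mer is scored as an enrichment z-score of sequence tags containing it, normalised to the matching GST SELEX round. RNA written as DNA (T = U).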

IMP3 KH1-2 = details: construct: KH1-2 (164-376); SELEX round: R4
IMP3 KH1-2, sequence (chain, as listed by the source): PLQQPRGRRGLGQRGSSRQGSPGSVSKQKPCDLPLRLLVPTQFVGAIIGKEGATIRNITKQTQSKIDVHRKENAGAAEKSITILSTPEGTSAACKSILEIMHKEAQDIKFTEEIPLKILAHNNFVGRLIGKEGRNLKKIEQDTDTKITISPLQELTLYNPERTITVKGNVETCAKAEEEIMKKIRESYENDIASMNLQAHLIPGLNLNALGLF
Description: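 SELEX-seq with GST-tagged IMP3 KH1-2 (Pro164-Phe376) and an N40 RNA pool, round 4 (stringent 300/600 mM KCl washes). 6-mer z-score of sequence-tag enrichment normalised to the corresponding GST SELEX round; RNA k-mers written as DNA (T for U).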

IMP3 KH3-4 = details: construct: KH3-4 (377-579); SELEX round: R4
IMP3 KH3-4, sequence (chain, as listed by the source): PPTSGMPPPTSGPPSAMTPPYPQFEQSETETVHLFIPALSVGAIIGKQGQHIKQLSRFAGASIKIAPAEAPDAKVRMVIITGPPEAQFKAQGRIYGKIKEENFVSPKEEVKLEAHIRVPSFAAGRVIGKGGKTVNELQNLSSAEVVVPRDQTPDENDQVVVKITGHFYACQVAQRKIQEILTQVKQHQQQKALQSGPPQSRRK
Description: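 SELEX-seq with GST-tagged IMP3 KH3-4 (Pro377-Lys579) and an N40 RNA pool, round 4. 6-mer z-score of sequence-tag enrichment normalised to the corresponding GST SELEX round; RNA k-mers written as DNA (T for U).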

IMP3 KH1-4, sequence (chain, as listed by the source): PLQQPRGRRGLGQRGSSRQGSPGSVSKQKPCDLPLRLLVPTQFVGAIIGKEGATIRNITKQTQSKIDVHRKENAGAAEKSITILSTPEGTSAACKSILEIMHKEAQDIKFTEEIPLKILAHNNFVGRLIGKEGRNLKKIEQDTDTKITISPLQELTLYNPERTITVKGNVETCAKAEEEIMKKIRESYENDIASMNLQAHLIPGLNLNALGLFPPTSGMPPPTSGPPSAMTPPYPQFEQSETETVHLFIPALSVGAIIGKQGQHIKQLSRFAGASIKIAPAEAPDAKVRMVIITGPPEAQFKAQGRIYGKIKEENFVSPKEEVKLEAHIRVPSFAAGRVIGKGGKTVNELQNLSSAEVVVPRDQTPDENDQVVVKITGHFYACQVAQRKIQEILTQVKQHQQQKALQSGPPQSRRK

Sequence: TGCCTT
- 6-mer SELEX enrichment z-score (IMP3 KH1-4): -0.262
- 6-mer SELEX enrichment z-score (IMP3 RRM1-2): 0.122
- 6-mer SELEX enrichment z-score (IMP3 full-length): -0.346
- 6-mer SELEX enrichment z-score (IMP3 KH1-2): -0.195
- 6-mer SELEX enrichment z-score (IMP3 KH3-4): -0.199

Sequence: TCCCCA
- 6-mer SELEX enrichment z-score (IMP3 KH1-4): -0.374
- 6-mer SELEX enrichment z-score (IMP3 RRM1-2): -0.537
- 6-mer SELEX enrichment z-score (IMP3 full-length): -0.646
- 6-mer SELEX enrichment z-score (IMP3 KH1-2): -0.411
- 6-mer SELEX enrichment z-score (IMP3 KH3-4): -1.28

Sequence: ATCGTC
- 6-mer SELEX enrichment z-score (IMP3 KH1-4): -0.028
- 6-mer SELEX enrichment z-score (IMP3 RRM1-2): 0.3
- 6-mer SELEX enrichment z-score (IMP3 full-length): 0.415
- 6-mer SELEX enrichment z-score (IMP3 KH1-2): -0.15
- 6-mer SELEX enrichment z-score (IMP3 KH3-4): -0.147

Sequence: TACCCT
- 6-mer SELEX enrichment z-score (IMP3 KH1-4): -0.728
- 6-mer SELEX enrichment z-score (IMP3 RRM1-2): -0.219
- 6-mer SELEX enrichment z-score (IMP3 full-length): -0.595
- 6-mer SELEX enrichment z-score (IMP3 KH1-2): -0.712
- 6-mer SELEX enrichment z-score (IMP3 KH3-4): -0.985

Sequence: CCCTTC
- 6-mer SELEX enrichment z-score (IMP3 KH1-4): -0.105
- 6-mer SELEX enrichment z-score (IMP3 RRM1-2): 0.174
- 6-mer SELEX enrichment z-score (IMP3 full-length): -0.324
- 6-mer SELEX enrichment z-score (IMP3 KH1-2): 0.016
- 6-mer SELEX enrichment z-score (IMP3 KH3-4): -0.616

Sequence: GAACGA
- 6-mer SELEX enrichment z-score (IMP3 KH1-4): -1.45
- 6-mer SELEX enrichment z-score (IMP3 RRM1-2): -2
- 6-mer SELEX enrichment z-score (IMP3 full-length): -1.59
- 6-mer SELEX enrichment z-score (IMP3 KH1-2): -1.43
- 6-mer SELEX enrichment z-score (IMP3 KH3-4): -1.2

Sequence: GGGATC
- 6-mer SELEX enrichment z-score (IMP3 KH1-4): -0.138
- 6-mer SELEX enrichment z-score (IMP3 RRM1-2): 0.309
- 6-mer SELEX enrichment z-score (IMP3 full-length): 0.223
- 6-mer SELEX enrichment z-score (IMP3 KH1-2): -0.022
- 6-mer SELEX enrichment z-score (IMP3 KH3-4): -0.06

Sequence: GATCGA
- 6-mer SELEX enrichment z-score (IMP3 KH1-4): -1.02
- 6-mer SELEX enrichment z-score (IMP3 RRM1-2): -0.584
- 6-mer SELEX enrichment z-score (IMP3 full-length): -0.496
- 6-mer SELEX enrichment z-score (IMP3 KH1-2): -1.01
- 6-mer SELEX enrichment z-score (IMP3 KH3-4): -0.823

Sequence: CCTTAT
- 6-mer SELEX enrichment z-score (IMP3 KH1-4): 0.769
- 6-mer SELEX enrichment z-score (IMP3 RRM1-2): 0.032
- 6-mer SELEX enrichment z-score (IMP3 full-length): -0.122
- 6-mer SELEX enrichment z-score (IMP3 KH1-2): 0.564
- 6-mer SELEX enrichment z-score (IMP3 KH3-4): 0.611

Sequence: AAATGG
- 6-mer SELEX enrichment z-score (IMP3 KH1-4): 0.278
- 6-mer SELEX enrichment z-score (IMP3 RRM1-2): -0.996
- 6-mer SELEX enrichment z-score (IMP3 full-length): -0.674
- 6-mer SELEX enrichment z-score (IMP3 KH1-2): -0.019
- 6-mer SELEX enrichment z-score (IMP3 KH3-4): 0.788

Sequence: CAAGTT
- 6-mer SELEX enrichment z-score (IMP3 KH1-4): -0.21
- 6-mer SELEX enrichment z-score (IMP3 RRM1-2): 0.266
- 6-mer SELEX enrichment z-score (IMP3 full-length): -0.149
- 6-mer SELEX enrichment z-score (IMP3 KH1-2): -0.275
- 6-mer SELEX enrichment z-score (IMP3 KH3-4): -0.194

Sequence: AGCACT
- 6-mer SELEX enrichment z-score (IMP3 KH1-4): -0.095
- 6-mer SELEX enrichment z-score (IMP3 RRM1-2): 0.663
- 6-mer SELEX enrichment z-score (IMP3 full-length): 0.458
- 6-mer SELEX enrichment z-score (IMP3 KH1-2): -0.189
- 6-mer SELEX enrichment z-score (IMP3 KH3-4): -0.219

Sequence: CGTTGT
- 6-mer SELEX enrichment z-score (IMP3 KH1-4): -0.481
- 6-mer SELEX enrichment z-score (IMP3 RRM1-2): 0.191
- 6-mer SELEX enrichment z-score (IMP3 full-length): -0.354
- 6-mer SELEX enrichment z-score (IMP3 KH1-2): -0.442
- 6-mer SELEX enrichment z-score (IMP3 KH3-4): -0.401

Sequence: CGCCTA
- 6-mer SELEX enrichment z-score (IMP3 KH1-4): -0.519
- 6-mer SELEX enrichment z-score (IMP3 RRM1-2): -0.317
- 6-mer SELEX enrichment z-score (IMP3 full-length): -0.482
- 6-mer SELEX enrichment z-score (IMP3 KH1-2): -0.431
- 6-mer SELEX enrichment z-score (IMP3 KH3-4): -0.589

Sequence: CTGTGT
- 6-mer SELEX enrichment z-score (IMP3 KH1-4): 0.029
- 6-mer SELEX enrichment z-score (IMP3 RRM1-2): 0.163
- 6-mer SELEX enrichment z-score (IMP3 full-length): -0.144
- 6-mer SELEX enrichment z-score (IMP3 KH1-2): -0.009
- 6-mer SELEX enrichment z-score (IMP3 KH3-4): -0.029

Sequence: TGGCTC
- 6-mer SELEX enrichment z-score (IMP3 KH1-4): -0.116
- 6-mer SELEX enrichment z-score (IMP3 RRM1-2): 0.501
- 6-mer SELEX enrichment z-score (IMP3 full-length): 0.356
- 6-mer SELEX enrichment z-score (IMP3 KH1-2): -0.016
- 6-mer SELEX enrichment z-score (IMP3 KH3-4): 0.023

Sequence: ATTGTG
- 6-mer SELEX enrichment z-score (IMP3 KH1-4): 0.608
- 6-mer SELEX enrichment z-score (IMP3 RRM1-2): 0.103
- 6-mer SELEX enrichment z-score (IMP3 full-length): -0.026
- 6-mer SELEX enrichment z-score (IMP3 KH1-2): 0.298
- 6-mer SELEX enrichment z-score (IMP3 KH3-4): 0.647

Sequence: GGTCGA
- 6-mer SELEX enrichment z-score (IMP3 KH1-4): -0.174
- 6-mer SELEX enrichment z-score (IMP3 RRM1-2): 0.027
- 6-mer SELEX enrichment z-score (IMP3 full-length): 0.242
- 6-mer SELEX enrichment z-score (IMP3 KH1-2): -0.122
- 6-mer SELEX enrichment z-score (IMP3 KH3-4): 0.011

Sequence: GCTCGT
- 6-mer SELEX enrichment z-score (IMP3 KH1-4): -0.464
- 6-mer SELEX enrichment z-score (IMP3 RRM1-2): 0.344
- 6-mer SELEX enrichment z-score (IMP3 full-length): 0.032
- 6-mer SELEX enrichment z-score (IMP3 KH1-2): -0.326
- 6-mer SELEX enrichment z-score (IMP3 KH3-4): -0.242

Sequence: ATTAGA
- 6-mer SELEX enrichment z-score (IMP3 KH1-4): 1.1
- 6-mer SELEX enrichment z-score (IMP3 RRM1-2): -0.263
- 6-mer SELEX enrichment z-score (IMP3 full-length): 0.065
- 6-mer SELEX enrichment z-score (IMP3 KH1-2): 0.805
- 6-mer SELEX enrichment z-score (IMP3 KH3-4): 1.7

Sequence: AACCCT
- 6-mer SELEX enrichment z-score (IMP3 KH1-4): -1.62
- 6-mer SELEX enrichment z-score (IMP3 RRM1-2): -1.12
- 6-mer SELEX enrichment z-score (IMP3 full-length): -1.93
- 6-mer SELEX enrichment z-score (IMP3 KH1-2): -1.66
- 6-mer SELEX enrichment z-score (IMP3 KH3-4): -2.05

Sequence: GATGGT
- 6-mer SELEX enrichment z-score (IMP3 KH1-4): 0.275
- 6-mer SELEX enrichment z-score (IMP3 RRM1-2): 0.091
- 6-mer SELEX enrichment z-score (IMP3 full-length): 0.119
- 6-mer SELEX enrichment z-score (IMP3 KH1-2): 0.245
- 6-mer SELEX enrichment z-score (IMP3 KH3-4): 0.328

Sequence: TGTGCG
- 6-mer SELEX enrichment z-score (IMP3 KH1-4): 0.027
- 6-mer SELEX enrichment z-score (IMP3 RRM1-2): 0.183
- 6-mer SELEX enrichment z-score (IMP3 full-length): -0.091
- 6-mer SELEX enrichment z-score (IMP3 KH1-2): -0.116
- 6-mer SELEX enrichment z-score (IMP3 KH3-4): 0.055
